Some of the results follow.
Columns and labels:
HSkMC = human skeletal muscle cells; assay: cytotoxicity call (relative viability < 0.9); settings: 10 µM
HepG2 = assay: cytotoxicity call (relative viability < 0.9); settings: 10 µM
S. aureus RN4220 = assay: growth inhibition call (relative growth <= 0.2); settings: 50 µM

| Compound | cytotoxicity call (HSkMC) | cytotoxicity call (HepG2) | growth inhibition call (S. aureus RN4220) |
| --- | --- | --- | --- |
| CC(C)NC(=O)Nc1cccc2c1O[C@H](CN(C)Cc1ccc(Oc3ccccc3)cc1)[C@@H](C)CN([C@H](C)CO)C2=O | inactive | inactive | inactive |
| COCC#Cc1cnc2c(c1)C(=O)N([C@@H](C)CO)C[C@@H](C)[C@H](CN(C)C(=O)Nc1cc(F)ccc1F)O2 | inactive | inactive | inactive |
| C[C@@H]1CN([C@H](C)CO)C(=O)c2cc(NC(=O)Nc3ccc(C(F)(F)F)cc3)ccc2O[C@@H](C)CCCCO[C@H]1CN(C)Cc1ccc(C(F)(F)F)cc1 | active | active | inactive |
| Cc1cc(C(=O)Nc2cccc3c2O[C@@H](CN(C)Cc2ccncc2)[C@H](C)CN([C@@H](C)CO)C3=O)n(C)n1 | inactive | inactive | inactive |
| COCC#Cc1ccc2c(c1)O[C@H](CN(C)Cc1ccccc1F)[C@H](C)CN([C@H](C)CO)S2(=O)=O | inactive | inactive | inactive |
| COc1ccccc1S(=O)(=O)N[C@@H]1CC[C@H](CCNC(=O)C2CCOCC2)O[C@H]1CO | inactive | inactive | inactive |
| COCC(=O)Nc1ccc2c(c1)[C@H]1C[C@@H](CC(=O)N3CCOCC3)O[C@@H](CO)[C@H]1O2 | inactive | inactive | inactive |
| CCC1(O)CC2CN(CCc3c([nH]c4ccccc34)C(C(=O)OC)(c3cc4c(cc3OC)N(C=O)C3C(O)(C(=O)OC)C(OC(C)=O)C5(CC)C=CCN6CCC43C65)C2)C1.O=S(=O)(O)O (stereo not drawn) | inactive | active | inactive |
| NCC1OC(OC2C(N)CC(N)C(OC3OC(CO)C(O)C(N)C3O)C2O)C(N)C(O)C1O.O=S(=O)(O)O (stereo not drawn) | inactive | inactive | active |
| CC(C)NC(=O)N(C)C[C@H]1Oc2cc(-c3ccccc3F)ccc2S(=O)(=O)N([C@H](C)CO)C[C@H]1C | inactive | inactive | inactive |
| CN(C)CCCNC(=O)C[C@@H]1CC[C@@H]2[C@@H](COc3ccc(NC(=O)c4cccc(F)c4)cc3C(=O)N2C)O1 | inactive | inactive | inactive |
